# Reference: paper PMC4336329 (PLoS ONE, 2015)
# Among all 310,000 compounds or so, about 2,200 (0.71%) showed an effect of 50% or more. The effect is printed as a negative number. The list shows a part of the results.
# Target: human ether-à-go-go-related gene (hERG) potassium channel (human, UniProt Q12809)
# Assay: primary screen, population patch clamp on CHO cells stably expressing hERG
# human ether-à-go-go-related gene (hERG) potassium channel, sequence (Q12809 whole entry, looked up): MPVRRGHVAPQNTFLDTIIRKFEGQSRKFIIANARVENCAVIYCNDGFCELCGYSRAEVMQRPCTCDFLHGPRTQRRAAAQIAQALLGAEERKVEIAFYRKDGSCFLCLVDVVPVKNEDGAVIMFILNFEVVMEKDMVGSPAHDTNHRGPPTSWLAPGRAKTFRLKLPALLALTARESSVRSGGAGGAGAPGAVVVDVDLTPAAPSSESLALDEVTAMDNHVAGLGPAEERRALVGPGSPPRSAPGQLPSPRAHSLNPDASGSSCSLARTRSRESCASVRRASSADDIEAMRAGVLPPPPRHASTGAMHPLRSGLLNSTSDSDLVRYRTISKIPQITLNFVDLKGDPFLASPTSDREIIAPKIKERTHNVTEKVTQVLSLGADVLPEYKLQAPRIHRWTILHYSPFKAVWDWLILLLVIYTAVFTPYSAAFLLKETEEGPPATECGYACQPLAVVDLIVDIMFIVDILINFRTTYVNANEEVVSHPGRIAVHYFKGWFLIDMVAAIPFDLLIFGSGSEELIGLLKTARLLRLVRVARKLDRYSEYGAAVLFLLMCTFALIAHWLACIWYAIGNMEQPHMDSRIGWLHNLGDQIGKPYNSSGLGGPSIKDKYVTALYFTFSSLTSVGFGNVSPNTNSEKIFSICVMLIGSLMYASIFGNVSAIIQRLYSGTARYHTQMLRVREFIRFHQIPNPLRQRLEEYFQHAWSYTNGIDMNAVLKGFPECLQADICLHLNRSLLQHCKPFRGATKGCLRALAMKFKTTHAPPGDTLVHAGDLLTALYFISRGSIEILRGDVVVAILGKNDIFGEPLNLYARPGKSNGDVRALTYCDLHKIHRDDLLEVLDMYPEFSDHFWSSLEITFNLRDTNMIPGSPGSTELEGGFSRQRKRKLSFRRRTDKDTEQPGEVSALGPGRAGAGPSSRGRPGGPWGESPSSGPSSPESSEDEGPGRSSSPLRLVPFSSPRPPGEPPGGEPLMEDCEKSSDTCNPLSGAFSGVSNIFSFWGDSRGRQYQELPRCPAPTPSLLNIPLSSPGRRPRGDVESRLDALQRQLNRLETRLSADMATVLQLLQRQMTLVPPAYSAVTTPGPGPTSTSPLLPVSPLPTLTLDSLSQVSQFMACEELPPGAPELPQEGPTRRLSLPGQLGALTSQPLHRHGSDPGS
row,Compound,"hERG current change (%, negative = inhibition) at 1uM [%]"
1,CCN(CC)CCOC(=O)c1ccc(NC(=S)NC(=O)/C=C/c2ccco2)cc1,11.9
2,CC(C)CC(N=C1NC(C)(C)Cc2ccccc21)C(=O)O (centres unmarked),3.02
3,Cc1ccccc1N(C(=O)c1cccs1)c1nc2ccccc2s1,8.42
4,Cc1cccc(S(=O)(=O)N2CCN(Cc3ccc4c(c3)OCO4)CC2)c1,6.56
5,O=C(COC(=O)Cc1ccc(F)cc1)NC1CCCC1,7.98
6,Cc1cccc(N(CC(O)CON=C2c3ccccc3-c3ccccc32)S(C)(=O)=O)c1 (centres unmarked),11.6
7,O=C(Nc1ccc(OC(F)F)c(Cl)c1)Nc1ccc2c(c1)OCO2,23.7
8,Cc1ccc(C(=O)NC(=S)NCC(=O)c2ccccc2)cc1,3.61
9,CCN(CC(=O)Nc1c(F)cccc1F)C(=O)C1Cc2ccccc2CN1S(=O)(=O)CC (centres unmarked),1.6
10,CCCc1cc(N2CCCC(C(=O)Nc3c(OC)cccc3OC)C2)n2ncnc2n1 (centres unmarked),1.56
11,CCOC(=O)c1cc2occc2n1CC(=O)NCCOC,12.4
12,O=C(NCc1cccs1)c1cc2c(s1)-c1ccccc1OC2,5.22
13,O=C(CN1C(=O)c2cccc3cccc(c23)C1=O)N1CCCCCC1,16.7
14,O=C(O)c1ccc(NC(=O)c2ccc3c(c2)C(=O)N(CC2CCCO2)C3=O)cc1 (centres unmarked),13.3
15,CC(NC(=O)CNC(=O)c1sc2ccccc2c1Cl)c1ccc(S(N)(=O)=O)cc1 (centres unmarked),-31.4
16,O=C(Cc1c[nH]c2ccccc12)N/N=C/c1cccc(F)c1,12.1
17,Cc1nc2sccn2c(=O)c1Br,17.8
18,Cc1ccc(NC(=O)NNC(=O)c2cc3ccccc3cc2O)cc1C,13.5
19,Cl.O=C(NCCc1ccccn1)c1cc(-c2cccc3ccccc23)nc2ccccc12,-5.02

row,Compound,"hERG current change (%, negative = inhibition) at 1uM [%]"
1,C/C(=C\c1cc(C(=O)O)c(C)o1)CO,5.92
2,CC(C)n1c(C(O)c2ccc3c(c2)OCO3)nc2ccccc21 (centres unmarked),4.48
3,CC1Cc2nc(SCC(=O)Nc3ccc4c(c3)OCO4)n(Cc3ccccc3)c(=O)c2S1 (centres unmarked),2.09
4,Cc1ccc(C(=O)NCc2occc2C(=O)O)o1,11
5,CCN(CC)C(=O)C1CCN(S(=O)(=O)c2ccc(-n3cnnn3)cc2)CC1,3.52
6,O=C(NCCc1ccco1)c1cc(COc2cccc(C(F)(F)F)c2)on1,10.5
7,C[C@H](NC(=O)c1ccccc1)C(=O)Nc1nc(-c2ccccn2)cs1,2.61
8,CC(C)(C)NC(=O)CSc1nc2ccc(NC(=O)CSc3nnnn3Cc3ccccc3)cc2s1,4.1
9,CC(C)OC(=O)CSc1nnc2c3ccccc3n(C)c2n1,5.55
10,CCOC(=O)CSc1nnc(Cc2cc(=O)[nH]c(=O)[nH]2)n1-c1ccc(Cl)cc1,9.54
11,O=C(COc1cccc(NC(=O)c2ccccc2)c1)c1ccc(F)cc1,-21.4
12,O=C(CSc1nnnn1Cc1ccccc1)Nc1cccc(F)c1,5.7
13,CCNC(=O)C1CC(=O)N(CCCc2ccccc2)C(=Nc2ccccc2)S1 (centres unmarked),14.2
14,COc1cccc(COC(=O)c2ccc3c(c2)NC(=O)C(C)S3)c1OC (centres unmarked),13.8
15,Cc1cc(C)nc(SCC(=O)Nc2ccnc3ccccc23)n1,6.55
16,COc1ccc(NC(=O)CCCSc2nc(-c3ccco3)cc(C(F)(F)F)n2)cc1OC,16.6
17,Cc1ccc(C(=O)N2CCCC2)c(F)c1F,-9.73
18,O=C(Cn1c(=O)oc2ccccc21)NC(=O)NCc1ccco1,11.3
19,Cc1cccc(NC(=O)c2nc[nH]c2C(=O)NCC(=O)OCc2ccccc2)c1,15.9

row,Compound,"hERG current change (%, negative = inhibition) at 1uM [%]"
1,CN1C(=O)c2ccc(C(=O)NC3CCCCC3)cc2C1=O,8
2,CCOc1ccc(C2C(C(=O)c3ccc(C)o3)=C(O)C(=O)N2c2nc(C)c(C(=O)OC)s2)cc1 (centres unmarked),9.88
3,COc1ccc(NC(=O)COc2nc3ccccc3nc2N2CCOCC2)c(OC)c1,14.2
4,O=C(Nc1nc(-c2ccncc2)cs1)c1ccc(S(=O)(=O)N2CCOCC2)cc1,13
5,COc1ccccc1-c1nnc(SC(C)C(=O)Nc2ccc(C(N)=O)cc2)o1 (centres unmarked),13.3
6,Oc1ccccc1N1CCN(c2ncnc3scc(-c4ccc(F)cc4)c23)CC1,14.3
7,CN(CCC#N)c1ncnc2scc(-c3ccccc3)c12,-0.143
8,Cc1cc2oc(C(=O)NCc3ccccc3)cc(=O)c2cc1C,14
9,O=C(O)C1Sc2[nH]c(=O)sc2C2c3cc(Cl)ccc3OC(=O)C12 (centres unmarked),16.9
10,Nc1nc(SCC(=O)Nc2cc(C(F)(F)F)ccc2N2CCOCC2)n[nH]1,7.59
11,COc1ccc(C)cc1S(=O)(=O)Nc1ccc2c(c1)OCCO2,15.9
12,Cc1ccc(C2(c3noc(CN(C)CCCN4CCOCC4)n3)CCCC2)cc1,7.43
13,O=S(=O)(c1ccc(Br)cc1)c1nc(-c2ccccc2)oc1NCCN1CCOCC1,7.08
14,c1ccc(Cn2c(SCc3nc4ccccc4s3)nnc2-c2ccco2)cc1,6.85
15,CCCn1nnc(NC(=O)/C=C/c2cc(Br)ccc2OC)n1,6.8
16,O=C1c2ccccc2C(=O)N1CN(C(=O)COc1ccccc1)c1ccccc1,7.23
17,Cc1cnc(CNC(=O)C2CCC(=O)N(Cc3ccc(Cl)cc3)C2)[nH]1 (centres unmarked),22.3
18,Cc1cccc(N/N=C/c2ccc(C)s2)c1,18.7
